# Laboratory results from article PMC12136788.
# This is one part of the list.
# B1: chr5:93620789:93620892:-|3pUTR|ENSG00000113391|unk|total|mutant (ssRNA)
# RNA: GGGAGUUCUACAGUCCGACGAUCCAGCCCCUCAUCCGAUUGUUUUCUUCCCAGAGCCCAGGGUCGUGAUAUAUACAUCUAAACCGCGUUUUGCAUUAUUUCCCGAUGAGUGCAACUGUCAAAGCAAUAUGGGUUCACUGGUCGCAACAGAGGAUUGAGCAUCA
# B2: chr1:165910223:165910324:+|3pUTR|ENSG00000143179|unk|total|mutant (ssRNA)
# RNA: GGGAGUUCUACAGUCCGACGAUCCCAGCAUUUGGCCAACUCUGUAUCUGAACUUGAGCUUUCUAUGGAACAAACAAUGGUCUCCGUUUUUUAAGAGCCUCUGGGUCUCUGAUUCCAUGGAGAGUCAGGAGCCGAAUCCGUGGACAACAGAGGAUUGAGCAUCA
# B3: chr3:186556460:186556561:-|CDS|ENSG00000113838|unk|total|mutant (ssRNA)
# RNA: GGGAGUUCUACAGUCCGACGAUCAGAGCCAGGAAGAUCUAUCCACUUCAUGAACUUGCACUGUGGCAACCACUGCAUGCAGACCGUGGCUUCUCAAAGAUCUCUAAGACUUUCUCUUUCUACAAACUGGAAACCUGGUUGAGGCAACAGAGGAUUGAGCAUCA
# B4: chr19:17405403:17405546:-|CDS|ENSG00000130303|unk|FALSE|unique (ssRNA)
# RNA: GGGAGUUCUACAGUCCGACGAUCUGACUAUUGCAGAGUGCCCAUGGAAGACGGGGAUAAGCGCUGUAAGCUUCUGCUGGGGAUAGGAAUUCUGGUGCUCCUGAUCAUCGUGAUUCUGGGGGUGCCCUUGAUUAUCUUCACCAUCAACAGAGGAUUGAGCAUCA
# B5: chrX:85861749:85861850:-|3pUTR|ENSG00000188419|msi1|total|mutant (ssRNA)
# RNA: GGGAGUUCUACAGUCCGACGAUCCUAAUUUAAAAUUUCAGAAAAUGCUAUUAAAGAAUUUUGAUUCAAGUAUUUAAACUGUUCCGUUAUGCAUGCUUCUUAUUAACCGAAAAUGAUAAUACCAUUCCGUUCCGUGAUCAGUAUCAACAGAGGAUUGAGCAUCA
# B6: chr11:57661263:57661364:+|CDS|ENSG00000172409|unk|total|mutant (ssRNA)
# RNA: GGGAGUUCUACAGUCCGACGAUCCCACCUACUGAGUGUCCGCACUGCCGAGGGUACAGAGGAGAACCUGUCCGAGACAAGUGCCGCUGGCUUCAUUGUGGUGACCAGUGUGGACCUGGAGCAUCAGGUGUUUACUGUUCUGUCCAACAGAGGAUUGAGCAUCA
# B7: chr9:83806335:83806438:-|CDS|ENSG00000165113|unk|total|mutant (ssRNA)
# RNA: GGGAGUUCUACAGUCCGACGAUCUGGCUCUGAUUCUGAACCUGGAAAAGGUAAAGGUCGAAAUACUGGAAAGUCUCAAACUUCCGGAAGCAAGUCAACUACAAAUGAGAAAAAAAGAGAGAAAAGAAGAAAAAAGAAGGAACACAACAGAGGAUUGAGCAUCA
# B8: ENSG00000139350:stop:overlap|stop_codon|ENSG00000139350|stop_codon|NA|stop_codon (ssRNA)
# RNA: GGGAGUUCUACAGUCCGACGAUCAUUUAUCUAGUACUCCUUUUGGCCAUGGUAGUAACCAGGCUCUCCAAUCCAGUGUUGAAUAGAAGUGAUGAUAGUGGACAUCUUUAUUUUGUCCCCAAAUUCUGGAAGAAGCAUUCAAUUCAACAGAGGAUUGAGCAUCA
# B9: ENSG00000198663:stop:overlap|stop_codon|ENSG00000198663|stop_codon|NA|stop_codon (ssRNA)
# RNA: GGGAGUUCUACAGUCCGACGAUCUUAUAGCCAGAGGGGUCCAGCCUUUGGUCAUCUGCGAUGGAACCGCUUUCUCAGAACUGUAGGAAAUAGAACUGUGCACAGGAACAGCUUCCAGAGCCGAAAACCAGGUUGAAAGGGGAACAACAGAGGAUUGAGCAUCA
# B10: chr8:100258838:100258944:-|CDS|ENSG00000034677|unk|FALSE|unique (ssRNA)
# RNA: GGGAGUUCUACAGUCCGACGAUCAGUGAAUUUGAGGCUCCAUCCCUCAGUGACAGUAUGCCUUCUGUAGCAGAUUCUCACUCUAGUCAUUUUUCUGAAUUUAGUUGUUCUGACCUAGAAAGCAUGAAAACUUCUUGUAGUCAUCAACAGAGGAUUGAGCAUCA
# B11: chr10:30336814:30336915:-|CDS|ENSG00000107951|unk|FALSE|unique (ssRNA)
# RNA: GGGAGUUCUACAGUCCGACGAUCGUAUUUUCCAGACUGCAUAGUCAGACCCUUUGGCUCCUCAGUCAACACUUUUGGGAAGUUAGGAUGUGAUUUGGACAUGUUUUUGGAUCUAGAUGAAACCAGAAACCUCAGCGCUCACAACAACAGAGGAUUGAGCAUCA
# B12: chr3:9371215:9371332:+|CDS|ENSG00000134077|unk|FALSE|unique (ssRNA)
# RNA: GGGAGUUCUACAGUCCGACGAUCUGGACAAGAAGUCAAAAUCGAUCAGAGAAAUGUUAAAAAAGAGUUCACUAGCCAUGCUUUAGAUUCUCAUAUCUUAGAUUAUUAUGAAAAUCCAGCCAUCAAAGAGGAUGUAUCAACAUUCAACAGAGGAUUGAGCAUCA
# B13: ENSG00000198589:be:win_951|CDS|ENSG00000198589|bound_else_gene|NA|bound_elsewhere_windowed (ssRNA)
# RNA: GGGAGUUCUACAGUCCGACGAUCAUGUUAUGUGAAUGGUGAGCUGGCUUCCUAUGGAGAGAUAACAUGGUUUGUCAACACUAGCGAUACCUUUGACAAAUGUUUCCUGGGCUCAUCAGAAACAGCAGAUGCUAAUAGAGUAUUCAACAGAGGAUUGAGCAUCA
# B14: chr10:126014591:126014692:-|3pUTR|ENSG00000148848|msi1|total|mutant (ssRNA)
# RNA: GGGAGUUCUACAGUCCGACGAUCAAAGGUUUGUCUCCUGAAAUUUUUUAAGUUUGUUUUCCUGACACAUGUAAUCAGAUGUGCCGCAACCGAGGGAAACGAAGCCUAACAUUCUCCAUUGUGGAAAUACACACAGGAGGUUACCAACAGAGGAUUGAGCAUCA
# Target: MSI1 full-length (mouse, UniProt Q61474 1-362)
# Chain of UniProt Q61474 (Q61474 whole entry): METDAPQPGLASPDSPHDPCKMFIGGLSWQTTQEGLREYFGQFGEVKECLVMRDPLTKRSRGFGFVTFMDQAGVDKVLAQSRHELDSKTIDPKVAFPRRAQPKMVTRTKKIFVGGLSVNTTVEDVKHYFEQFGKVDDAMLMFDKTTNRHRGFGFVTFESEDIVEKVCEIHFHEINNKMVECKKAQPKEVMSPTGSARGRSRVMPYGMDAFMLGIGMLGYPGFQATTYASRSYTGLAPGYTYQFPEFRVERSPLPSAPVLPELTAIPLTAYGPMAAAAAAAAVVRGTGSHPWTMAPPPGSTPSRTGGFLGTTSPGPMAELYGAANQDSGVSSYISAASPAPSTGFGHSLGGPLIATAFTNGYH
# Assay: nsRBNS (natural sequence RNA bind-n-seq); RBNS binding buffer (assumed for nsRBNS): 25 mM Tris pH 7.5, 150 mM KCl, 3 mM MgCl2, 0.01% Triton X-100, 500 ug/ml BSA, 20 U/ml SUPERase-In, 4 C; UNK is unkempt and MSI1 is Musashi-1; names of the RNAs are library labels; protein concentration not given here; high values mean tight binding
row,Binder,binding signal [enrichment R]
1,B1,0.446
2,B2,0.321
3,B3,0.376
4,B4,0.506
5,B5,0.789
6,B6,0.361
7,B7,0.502
8,B8,0.732
9,B9,0.187
10,B10,2.9
11,B11,0.534
12,B12,2.21
13,B13,9.28
14,B14,0.404
